Out of some 270,000 compounds screened, about 620 (0.23%) were called active. The shares of active, inactive and inconclusive entries below differ from those in the screen. Calls follow the shape of the dose curve; as a rule, active = well fitted inhibition curve with a large enough effect in the polarisation, with a control signal flat (not every such curve was filed as active); inconclusive = small, poorly fitted or top-dose-only effect, or effect the other way, or a change in a side signal; inactive = no such curve, though single readings can be large or run the other way; the % refers to the polarisation. Potencies beside an inconclusive call are fits to weak or partial responses and may not hold up. A note “side channel” means that the fit belongs to a control or component signal, not to the main read-out.
Each molecule was assayed against Menin (Homo sapiens) (UniProt O00255) (assay: qHTS Assay for Inhibitors Targeting the Menin-MLL Interaction in MLL Related Leukemias: Competition With Texas Red Labeled MLL-derived Mutant Peptide). Settings: fluorescence polarization; FP activity change, negative = inhibition: at 61.6 µM (top of the series).
Sequence of UniProt O00255 (O00255 whole entry, looked up): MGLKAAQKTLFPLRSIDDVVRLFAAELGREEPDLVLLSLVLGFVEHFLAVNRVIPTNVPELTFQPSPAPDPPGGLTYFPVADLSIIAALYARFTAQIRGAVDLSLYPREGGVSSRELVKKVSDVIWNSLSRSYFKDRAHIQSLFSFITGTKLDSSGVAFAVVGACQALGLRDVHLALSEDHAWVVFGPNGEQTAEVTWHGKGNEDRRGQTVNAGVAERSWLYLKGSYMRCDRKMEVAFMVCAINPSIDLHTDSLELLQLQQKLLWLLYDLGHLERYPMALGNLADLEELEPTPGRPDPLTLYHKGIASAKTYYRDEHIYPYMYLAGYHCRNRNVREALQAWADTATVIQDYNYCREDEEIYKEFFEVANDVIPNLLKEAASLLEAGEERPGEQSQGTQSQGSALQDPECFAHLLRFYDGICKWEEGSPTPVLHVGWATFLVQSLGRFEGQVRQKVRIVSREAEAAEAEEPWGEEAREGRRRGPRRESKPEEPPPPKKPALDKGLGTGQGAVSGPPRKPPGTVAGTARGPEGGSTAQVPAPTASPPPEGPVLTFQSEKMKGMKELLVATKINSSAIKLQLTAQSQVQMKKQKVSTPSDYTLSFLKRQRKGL
With `Cc1ccc(-c2nnc(SCC(=O)Nc3nc4c(s3)CCCC4)n2C)cc1` the Potency was inconclusive: 11.2 µM [fluorescent, side channel, partial curve]. In the case of `O=C(/C=C/c1ccccc1)NC(=S)Nc1ccc(N2CCOCC2)cc1`, the Potency is reported as inconclusive: 12.6 µM [quencher, side channel, partial curve]. `CCSc1nc(-c2ccco2)ccc1C#N` was tested, and the Potency was inconclusive: 20 µM [quencher, side channel, single point]. In the case of `Nc1nc(-c2ccc(-c3ccccc3)cc2)cs1`, the Potency is reported as inconclusive: 25.1 µM [quencher, side channel, partial curve]. For `COc1ccc(C2SCCN2C(=S)Nc2cccc(Cl)c2)cc1` (stereo not drawn), the Potency was inconclusive: 14.1 µM [quencher, side channel, partial curve]. In the case of `Cc1ccc(N2CCOCC2)c2c1C(=O)c1ccccc1C2=O`, the “FP activity change, negative = inhibition” value is reported as inactive: -14.9%. In the case of `Cc1ccc(-c2[nH]c(-c3ccc(C(=O)O)cc3)nc2-c2ccccc2)cc1`, the Potency is reported as inconclusive: 14.1 µM [quencher, side channel, partial curve]. `COc1cc(/C=C(\C#N)c2nc3ccccc3[nH]2)cc(OC)c1O` was tested, and the Potency was inconclusive: 11.2 µM [quencher, side channel, partial curve]. `Nc1ccc(-c2nc3ccc(-c4nc5ccccc5o4)cc3[nH]2)cc1` was tested, and the Potency was inconclusive: 7.08 µM [quencher, side channel, partial curve]. With `CC(=O)Oc1ccc(-c2csc(Nc3cccc(C)n3)n2)cc1` the Potency was inconclusive: 11.2 µM [quencher, side channel, partial curve]. `Cc1[nH]c(=O)[nH]c(=O)c1/C=N/NC(=O)[C@@H](NC(=O)OC(C)(C)C)C(C)C` was tested, and the “FP activity change, negative = inhibition” value was inactive: -1.24%. With `O=[N+]([O-])c1ccc(Nc2nc(N/N=C\c3ccc4c(c3)OCO4)nc(N3CCCCC3)n2)cc1` the Potency was inconclusive: 1.78 µM [quencher, side channel, full curve]. With `COc1ccc(NC(=O)CSc2nnc(-c3cccs3)n2-c2ccccc2)cc1` the Potency was inconclusive: 20 µM [fluorescent, side channel, single point]. In the case of `Cc1ccc(N2C(=O)/C(=C/c3ccco3)SC2=S)cc1`, the Potency is reported as inconclusive: 31.6 µM [quencher, side channel, single point]. In the case of `O=C(Cc1ccccc1)NC(Nc1cccc2ccccc12)C(Cl)(Cl)Cl` (stereo not drawn), the Potency is reported as inconclusive: 11.2 µM [quencher, side channel, partial curve]. In the case of `Cc1ccc2c(c1)NC(=O)C(CC(=O)Nc1ccc(Br)c(C)c1)O2` (stereo not drawn), the Potency is reported as inconclusive: 35.5 µM [fluorescent, side channel, single point]. In the case of `CCOC(=O)c1c(N)sc(C(O)(C(F)(F)F)C(F)(F)F)c1-c1ccc(Cl)cc1`, the Potency is reported as inconclusive: 28.2 µM [quencher, side channel, single point]. In the case of `N#C/C(=C\c1ccc(OCc2ccc(Br)cc2)cc1)C(=O)Nc1cccc(C(=O)O)c1`, the Potency is reported as inconclusive: 7.94 µM [quencher, side channel, partial curve]. With `O=C(CN1C(=O)/C(=C\c2ccccc2F)SC1=S)Nc1nc2ccccc2s1` the Potency was inconclusive: 10 µM [quencher, side channel, partial curve]. `Cc1nc(SCC(=O)N(C)C2CCCCC2)[nH]c(=O)c1Cc1ccccc1` was tested, and the Potency was inconclusive: 1.78 µM [fluorescent, side channel, partial curve]. For `CCOC(=O)C1CCCN(Cc2cc(Br)ccc2OC)C1` (stereo not drawn), the Potency was inconclusive: 3.55 µM [inhibitor, full curve]. In the case of `CCCc1ccc(-c2cc(C(=O)N/N=C/c3ccc([N+](=O)[O-])o3)c3ccccc3n2)cc1`, the Potency is reported as inconclusive: 14.1 µM [quencher, side channel, partial curve]. In the case of `COc1cc(C(=O)O[C@H]2C/C(C)=C/CC[C@@]3(C)O[C@@H]3[C@H](O)[C@@H]2C(C)C)cc(OC)c1OC`, the Potency is reported as inconclusive: 1.58 µM [inhibitor, full curve]. In the case of `Cc1noc(NS(=O)(=O)c2ccc(N/C=C\C(=O)c3ccc(F)cc3)cc2)c1C`, the Potency is reported as inconclusive: 39.8 µM [quencher, side channel, single point]. `CC(C)C(=O)Nc1ccc(C(=O)NNC(=O)CCc2ccccc2)cc1` was tested, and the Potency was inconclusive: 31.6 µM [inhibitor, single point]. `O=C(NC(=S)Nc1ccc(S(=O)(=O)N2CCCCC2)cc1)c1ccccc1` was tested, and the Potency was inconclusive: 35.5 µM [inhibitor, single point]. With `COc1cccc(Nc2nc(-c3sc(N)nc3C)cs2)c1` the Potency was inconclusive: 20 µM [quencher, side channel, partial curve]. `CN(C)c1ccc(N2CN=C3SCC(=O)N3C2)cc1` was tested, and the “FP activity change, negative = inhibition” value was inactive: 8.86%. With `CCN(CC)C(=O)CNC(=O)c1nn(-c2ccc(OC)c(Cl)c2)c(=O)c2ccccc12` the Potency was inconclusive: 20 µM [quencher, side channel, single point]. In the case of `CCOC(=O)CCNC(=O)c1ccc2nc(C3CCCCC3)oc2c1`, the Potency is reported as inconclusive: 39.8 µM [inhibitor, single point]. With `O=C(COc1cccc(Br)c1)N/N=C1\CCSC1` the “FP activity change, negative = inhibition” value was inactive: -1.07%. With `C/C=C/c1ccc2oc(-c3ccc(O)cc3)c(C)c2c1` the Potency was inconclusive: 14.1 µM [quencher, side channel, partial curve]. `O=C(CSCC(=O)OCC(=O)c1ccc(Br)cc1)Nc1ccc(Br)cc1` was tested, and the Potency was inconclusive: 28.2 µM [quencher, side channel, partial curve]. `CSC1=N/C(=C\c2ccc3c(c2)OCO3)C(=O)S1` was tested, and the Potency was inconclusive: 25.1 µM [inhibitor, single point]. In the case of `COc1ccc(N(C(=O)c2ccco2)C(C(=O)NC2CCCC2)c2cccs2)cc1` (stereo not drawn), the Potency is reported as inconclusive: 8.91 µM [fluorescent, side channel, partial curve]. For `COc1cccc(/C=N/NC(=O)Cn2nc(C)c([N+](=O)[O-])c2C)c1O`, the “FP activity change, negative = inhibition” value was inactive: 5.06%. In the case of `COc1cc2c(cc1NC(=O)CSc1nc3ccccc3[nH]1)oc1ccccc12`, the Potency is reported as inconclusive: 28.2 µM [inhibitor, partial curve]. `O=C(CC(Nc1ccc(Cl)cc1)C(=O)O)c1ccccc1` (stereo not drawn) was tested, and the Potency was inconclusive: 20 µM [quencher, side channel, single point]. For `NCc1ccccc1COc1ccccc1`, the “FP activity change, negative = inhibition” value was inactive: -2.6%. With `CCc1ccc2nc(SCC(=O)Nc3nnc(C)s3)c(C)cc2c1` the Potency was inconclusive: 20 µM [fluorescent, side channel, single point]. For `CCOC(=O)C1(CCOc2ccccc2)CCN(C(=O)c2ccc(-n3cccn3)cc2)CC1`, the Potency was inconclusive: 0.631 µM [fluorescent, side channel, full curve, poor fit]. `Oc1ccc(N2CCN(C(c3cccnc3)c3nnnn3Cc3ccccc3)CC2)cc1` (stereo not drawn) was tested, and the “FP activity change, negative = inhibition” value was inactive: -22.3%. `CCOC(=O)C1(CCOc2ccccc2)CCN(Cc2cc(OC)c(O)c(OC)c2)CC1` was tested, and the “FP activity change, negative = inhibition” value was inactive: 1.3%. With `CCCCN(C)C(=O)CS(=O)(=O)Cc1nc(-c2cccc(OC)c2)oc1C` the “FP activity change, negative = inhibition” value was inactive: -13.7%. For `Cc1[nH][nH]c(=O)c1C(c1ccc(-c2ccc(Cl)cc2Cl)o1)c1c(C)[nH][nH]c1=O`, the Potency was inconclusive: 31.6 µM [quencher, side channel, single point]. With `Cc1cc(=O)oc2c3c(cc(OCC(=O)NCC(=O)O)c12)OC(C)(C)CC3` the Potency was inconclusive: 0.631 µM [inhibitor, partial curve]. With `CCn1c(C(O)c2ccc3c(c2)OCO3)nc2ccccc21` (stereo not drawn) the Potency was inconclusive: 10 µM [inhibitor, partial curve, poor fit]. `O=C1CN(C(=S)NC(=O)c2ccc(-c3ccccc3)cc2)CCN1` was tested, and the Potency was inconclusive: 35.5 µM [inhibitor, single point]. With `O=S(=O)(Nc1nc2ccccc2nc1Nc1ccc2c(c1)OCCO2)c1cccs1` the Potency was inconclusive: 12.6 µM [quencher, side channel, partial curve]. For `CCCS(=O)(=O)N1CCCC(C(=O)N2CCN(c3ccccc3)CC2)C1` (stereo not drawn), the Potency was inconclusive: 10 µM [inhibitor, single point]. With `CCC[C@@H](CNC)NC[C@H](Cc1ccccc1)NCCCCc1ccccc1` the Potency was inconclusive: 12.6 µM [inhibitor, partial curve]. In the case of `O=C(N/N=C/c1cccc([N+](=O)[O-])c1O)c1cccs1`, the Potency is reported as inconclusive: 28.2 µM [quencher, side channel, partial curve]. In the case of `CC1CN(C(=O)C(Sc2ccccc2)c2ccccc2)CC(C)O1` (stereo not drawn), the Potency is reported as inconclusive: 11.2 µM [inhibitor, partial curve]. In the case of `CCCSc1nnc(N2C(=O)CC(c3ccsc3)C3=C2CCCC3=O)s1` (stereo not drawn), the Potency is reported as inconclusive: 28.2 µM [fluorescent, side channel, single point]. For `COC(=O)c1ccc2c(=O)[nH]c(CN3c4ccccc4CC3C)nc2c1` (stereo not drawn), the Potency was inconclusive: 35.5 µM [quencher, side channel, single point]. `COC(CNC(=O)CCc1c(C)nc2c(c(C)nn2-c2ccc(C)cc2)c1C)OC` was tested, and the Potency was inconclusive: 2.51 µM [inhibitor, full curve, poor fit]. For `COc1ccc(-c2nc3ccc(N4CCCC4)cc3c(=O)[nH]2)cc1OC`, the Potency was inconclusive: 12.6 µM [quencher, side channel, partial curve]. In the case of `COc1ccc(NC(c2ccccc2)c2ccncc2)cc1` (stereo not drawn), the Potency is reported as inconclusive: 39.8 µM [inhibitor, partial curve, poor fit].

Source: PubChem BioAssay AID1768 (National Center for Advancing Translational Sciences (NCATS), 2009)
For FP activity change, negative = inhibition in this document: % of control where 0% means no effect.
Potency is read from the fitted curve at half-maximal effect; tags tell the direction and shape of the fitted curve or compound fluorescence and quenching.
